Measured values as given in PubChem BioAssay AID1508642 (National Center for Advancing Translational Sciences (NCATS), 2021).
About 200 (0.47%) of roughly 43,000 compounds were called active. Not shown: some 12% with an inconclusive outcome. Calls follow the shape of the dose curve; as a rule, active = well fitted cell-killing curve with a large enough effect; inconclusive = small, poorly fitted or top-dose-only effect, or effect the other way; inactive = flat fitted curve, though single readings scatter. The list shows a part of the results.

Assay: Cell viability qHTS assay in S16 Pmp22-F2sN cells; also: nearly all actives have a fitted effect of over 65% in size
Conditions: S16 Pmp22-F2sN Schwann cells (luciferase reporters placed in the Pmp22 gene) viability, CellTiter-Glo, 24 h; series mostly up to 57.5 µM; activity change, negative = cytotoxicity: at the top concentration
In short: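 Luminescence from CellTiter-Glo, read by CCD camera after a 15 min room-temperature incubation, served as the viability signal. Reporter Schwann cells (S16 Pmp22-F2sN) had been treated with pin-transferred compounds for 24 h at 37C.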
% is scaled to controls: 0 for no effect and ±100 for the full control effect.

Row | SMILES | activity change, negative = cytotoxicity
1 | CCOc1ccc(CC(=O)NCCc2sc3nc(-c4ccc(OC)cc4)nn3c2C)cc1 | inactive: -0.761%
2 | Cc1cccc(-n2c(=O)c3c4c(sc3n3cnnc23)CCCC4)c1 | inactive: 2.26%
3 | Cc1cc(C)cc(NC2=CC(c3cccc(F)c3)N(c3cc(C)cc(C)c3)C2=O)c1 (stereo unspecified) | inactive: 9.66%
4 | Cc1cc(=O)n(Cc2cccc(Cl)c2)c2c1c(C)nn2-c1ccccc1 | inactive: -0.0399%
5 | COc1ccc(CNC(=O)CN(c2ccccc2)S(=O)(=O)N(C)C)cc1 | inactive: -2.2%
6 | Cc1ccc(CNC(=O)c2ccc(Cn3c(SCc4ccccc4F)nc4cccnc43)cc2)cc1 | inactive: 1.85%
7 | CN(C)S(=O)(=O)c1ccc(C(=O)N2CC(=O)Nc3ccc(Br)cc3C2c2ccc(F)cc2)cc1 (stereo unspecified) | inactive: -12%
8 | CC1CCN(C(=O)Cn2c(=O)oc3cc(S(=O)(=O)N4CCCCC4)ccc32)CC1 | inactive: 0.138%
9 | CCOC(=O)Cn1cnc2onc(-c3ccc(F)cc3)c2c1=O | inactive: -3.98%
10 | COc1ccc(C(CNC(=O)COc2ccc(Cl)c(C)c2)N2CCOCC2)cc1 (stereo unspecified) | inactive: 2.76%
11 | CCCCSc1ncnc2c1c(-c1ccccc1)cn2-c1cccc(F)c1 | inactive: 3.19%
12 | CCN(CC)S(=O)(=O)c1nnc(NC(=O)COc2ccc(Cl)cc2)s1 | inactive: 1%
13 | Cc1nnc(SCC(=O)Nc2ccc(Br)cc2)[nH]c1=O | inactive: 5.42%
14 | O=c1c(=O)n(-c2cccc(Cl)c2)ccn1Cc1cccc(F)c1 | inactive: -7.16%
15 | CC(=O)N1CCc2cc(S(=O)(=O)NC(CC(C)C)C(=O)NCc3ccccc3)ccc21 (stereo unspecified) | inactive: -0.289%
16 | COc1cccc2c1cc1c(=O)n(CC(=O)NC3CC3)nc(C)n12 | inactive: 9.21%
17 | CCOc1ccc(NC(=O)C(NC(=O)C2CCC(C)CC2)C(C)C)cc1 (stereo unspecified) | inactive: 3.1%
18 | CCOC(=O)c1cc(-c2ccccc2)n(CC(=O)N(C)c2ccc(OC)cc2)c1C | inactive: -13.5%
19 | CCCCC(CC)CNC(=O)CCCn1c(=O)[nH]c2ccsc2c1=O (stereo unspecified) | inactive: 4.22%
20 | COc1ccc(C)cc1Nc1nc(-c2cccc(Cl)c2)c2c(n1)-c1ccccc1OC2 | inactive: 6.24%
21 | COc1cc(-c2nc(Cn3nnc(C(=O)Nc4cc(C)cc(C)c4)c3C)c(C)o2)cc(OC)c1OC | inactive: 5.46%
22 | Cc1ccc(-c2nc(N3CCN(c4ccccc4Cl)CC3)c3ccccc3n2)cc1 | inactive: 7.26%
23 | CCN(CCCNC(=O)c1cc2cc3ccc(C)cc3nc2s1)c1ccccc1 | inactive: -3.7%
24 | CCCN(c1ccccc1CC)S(=O)(=O)c1ccc2c(c1)CC(C)N2C(=O)C1CC1 (stereo unspecified) | inactive: -23.3%

Row | SMILES | activity change, negative = cytotoxicity
25 | CCS(=O)(=O)N1CC(=O)N(c2cccc(Cl)c2C)C(C)(C(=O)NC2CCCCC2)C1 (stereo unspecified) | inactive: -0.22%
26 | Cc1ccc(NC(=O)c2oc3ccc(S(=O)(=O)N(C)C4CCCCC4)cc3c2C)cc1Cl | inactive: 13%
27 | COc1ccc(-c2nc(CSCC(=O)N3CCN(c4ccc(OC)cc4)CC3)c(C)o2)cc1 | inactive: -23.3%
28 | O=S(=O)(c1cccc(F)c1)N1CCC(c2nc3ccccc3s2)CC1 | inactive: 1.57%
29 | COCCNC(=O)CCCN1C(=O)c2ccccc2Sc2ncccc21 | inactive: 8.26%
30 | Cc1ccc(Cn2ccnc2SCC(=O)NCc2ccc(F)cc2)cc1 | inactive: -19%
31 | COc1ccc(NC(=O)CSc2nc3ccccc3n2CC(=O)N(C)c2ccc(F)cc2)cc1 | inactive: -9.01%
32 | COc1ccc(OCCCCn2c(C3CC(=O)N(c4cccc(Cl)c4)C3)nc3ccccc32)cc1 (stereo unspecified) | inactive: -23%
33 | Cc1cc(C)n(CCc2nc3c4ccccc4nc(N4CCN(c5ccccc5F)CC4)n3n2)n1 | inactive: 2.74%
34 | C#CC(C)(CC)NC(=O)c1cnn2c(C(F)F)cc(-c3ccccc3OC)nc12 (stereo unspecified) | inactive: -0.0477%
35 | Cc1ccc(NC(=O)/C(C#N)=C/c2ccc(C)o2)cc1 | inactive: -1.91%
36 | CC(C)CCNC(=O)c1ccc2c(c1)NC(=O)C(CS(=O)(=O)Cc1cccc(Br)c1)N2 (stereo unspecified) | inactive: -0.169%
37 | CCOc1ccc(NC(=O)c2cn(C)c(=O)c3cc(OC)c(OC)cc23)cc1 | inactive: -0.175%
38 | CN1C(=O)C2(SCC(=O)N2c2cccc(C(F)(F)F)c2)c2ccccc21 (stereo unspecified) | inactive: 15.9%
39 | CCOC(=O)C1CCC(CN(Cc2ccc(Cl)cc2)S(=O)(=O)c2ccc(Br)cc2)CC1 (stereo unspecified) | inactive: -2.24%
40 | COc1ccc(-c2onc(C)c2C)cc1S(=O)(=O)N(C)Cc1ccco1 | inactive: -7.75%
41 | CCOC(=O)C1CCN(CC(=O)N2CCCc3c2c(=O)oc2ccc(OCc4ccccc4)cc32)CC1 | inactive: 17.9%
42 | CCS(=O)(=O)N1CCc2cc(C(=O)NCCc3ccccc3)ccc21 | inactive: 11.3%
43 | CCCN1CCN(CCNC(=O)Nc2ccc(OC)c(OC)c2)CC1 | inactive: 21.4%
44 | CCc1ccc(NC(=O)CN2C(=O)C3(SCC(=O)N3c3ccccc3)c3ccccc32)cc1 (stereo unspecified) | inactive: -16.1%
45 | COc1ccc(NC(=O)c2sc3nc(C)c(C(=O)Nc4ccc(C)cc4C)c(-c4ccc(C)o4)c3c2N)cc1 | inactive: 2.29%
46 | Cc1ccc(Nc2nc(C)cc(C)n2)c(C(=O)O)c1 | inactive: 8.03%
47 | COc1ccc(NC(=O)Cn2nc(-c3ccncc3)ccc2=O)cc1Cl | inactive: -7.08%
48 | CC1(C)CC(=O)c2cc(-c3nc(-c4ccc(Cl)cc4)cs3)c(=O)n(-c3ccc(Cl)cc3)c2C1 | inactive: -1.06%

Row | SMILES | activity change, negative = cytotoxicity
49 | CN(C)CCNC(=O)CCCN1C(=O)c2cccnc2Oc2ccc(Cl)cc21 | inactive: 22.8%
50 | O=C1CC(c2nc3ccccc3n2CCCOc2ccccc2)CN1c1ccc(F)cc1 (stereo unspecified) | inactive: -7.25%
51 | Cc1cc(C)cc(-n2ccn(CC(=O)Nc3ccccc3C(F)(F)F)c(=O)c2=O)c1 | inactive: -1.88%
52 | CCN(c1ccccc1)c1nnc(NC(=O)Nc2cccc(Br)c2)s1 | inactive: -0.966%
53 | Cc1ccc(N2CC(C)Cn3c2nc2c3c(=O)n(CC(=O)O)c(=O)n2C)cc1 (stereo unspecified) | inactive: 0.032%
54 | COc1ccc(N2CCN(C(=O)c3ccc(CS(=O)(=O)c4ccc(Br)cc4)o3)CC2)cc1 | inactive: 12.4%
55 | Cc1nc(N2CCCC2)c2c(C(=O)N3CCN(c4cccc(Cl)c4)CC3)c(C)oc2n1 | inactive: 0.489%
56 | CCOc1ccc(C2c3c(oc4ccc(C)cc4c3=O)C(=O)N2Cc2ccc3c(c2)OCO3)cc1OC (stereo unspecified) | inactive: -4.74%
57 | Cc1ccc(CNC(=O)c2ccc(CSCc3ccc(C)cc3)o2)cc1 | inactive: 2.99%
58 | CCN(c1ccc(OC)cc1)S(=O)(=O)c1nnc(NC(=O)c2ccccc2Cl)s1 | inactive: -0.0164%
59 | Cc1c(C(=O)NCc2ccccc2)sc2nc3n(c(=O)c12)CCC3 | inactive: 2.12%
60 | CCCOC(=O)c1ccc(NC(=O)Cc2csc(C)n2)cc1 | inactive: 0.949%
61 | COCC(=O)N1c2nc(C(C)C)nn2C2(CCCCC2)[C@@H]2CCCC[C@@H]21 | inactive: -2.26%
62 | CSc1nc2sc3c(c2c(=O)n1-c1ccccc1C)CCCC3 | inactive: 0.0627%
63 | Cc1cccc(N2C(=O)CSC23C(=O)N(Cc2cccc(C(F)(F)F)c2)c2ccccc23)c1 (stereo unspecified) | inactive: -9.03%
64 | CCC(=O)N1CCc2cc(Br)cc(S(=O)(=O)NCc3ccc(Cl)cc3)c21 | inactive: 19%
65 | CCCN1CCN(CCCNC(=O)c2cnn(-c3ccc(F)cc3)c2-n2cccc2)CC1 | inactive: 11.1%
66 | CCOc1ccc(Nc2nc3ccccc3n3c(CC)nnc23)cc1 | inactive: 4.54%
67 | O=C(Cn1c(=O)n(-c2ccccc2)c(=O)c2sc3ccccc3c21)N1CCCC1 | inactive: 1.75%
68 | CCCc1nnc(NC(=O)Cc2coc3cc(C)cc(C)c23)s1 | inactive: -3.72%
69 | Cc1ccc(C(=O)N2CCc3cc(CNC(=O)COc4ccccc4)ccc32)cc1 | inactive: 2.71%
70 | COc1ccc(-c2nn3c(=O)cc(CN4CCN(C(=O)Nc5ccc(C)c(Cl)c5)CC4)nc3s2)cc1 | inactive: 15.4%
71 | COc1ccc(CCNC(=O)c2nnc(Cc3ccc(Cl)cc3)o2)cc1OC | inactive: 6.05%
72 | O=C(NCC(c1ccco1)S(=O)(=O)c1ccc(Cl)cc1)c1ccccc1F (stereo unspecified) | inactive: -23.5%

Row | SMILES | activity change, negative = cytotoxicity
73 | Cc1ccc2oc(=O)c3cnn(CC(=O)Nc4cccc(C(F)(F)F)c4)c3c2c1 | inactive: -0.207%
74 | O=[N+]([O-])c1cc(-c2nc(-c3cccnc3)no2)ccc1NCc1ccccc1 | inactive: 1.39%
75 | CC(C)c1ccc(NC(=O)CN2C(=O)COc3ccc(S(=O)(=O)Nc4ccccc4)cc32)cc1 | inactive: 3.3%
76 | O=C(Nc1ccc(Br)cc1)C1CCN(S(=O)(=O)c2cccc3nsnc23)CC1 | inactive: 12.3%
77 | CC(C)OCCCNC(=O)CCCn1c(SCC(=O)c2ccc(F)cc2)nc2c(sc3ccccc32)c1=O | inactive: 22%
78 | CCCCc1nc2ccccc2n2c(-c3ccc(C)cc3)c3c(=O)n(C)c(=O)n(C)c3c12 | inactive: 7.7%
79 | COCCCNC(=O)c1cc2c(=O)n3cccc(C)c3nc2s1 | inactive: 2.45%
80 | Cc1c(C)n(Cc2ccc(Cl)cc2)c2ccc(C(=O)NCCc3ccc(S(N)(=O)=O)cc3)cc12 | inactive: -7.69%
81 | Cc1cc(N2CCCCC2)nc2ccc(NC(=O)c3cccc(F)c3)cc12 | inactive: -20.5%
82 | CSc1cccc(NC(=O)CN(c2ccccc2)S(=O)(=O)N(C)C)c1 | inactive: 5.01%
83 | CC1CCN(S(=O)(=O)c2ccc3c(c2)N(CC(=O)NC(C)c2ccccc2)C(=O)CO3)CC1 (stereo unspecified) | inactive: -1.75%
84 | CCCCN(C)S(=O)(=O)c1cc(-c2nnc3c4ccccc4c(C)nn23)ccc1C | inactive: -9.34%
85 | CN(C)c1ccc(NC(=O)CCSc2nc(-c3ccco3)cc(C(F)(F)F)n2)cc1 | inactive: -21.7%
86 | CCOc1ccc(-n2c(=O)c3c(C)c(C)sc3n(CC(=O)c3ccccc3)c2=O)cc1 | inactive: -6.58%
87 | CCN(CC)CCCNC(=O)c1c(C)oc2ncn(CC(C)C)c(=O)c12 | inactive: 2.2%
88 | COc1cc(Br)c(C2CC(=O)Nc3cc(OC)c(OC)c(OC)c32)cc1OC (stereo unspecified) | inactive: 13%
89 | CCc1ccccc1NC(=O)Cn1ncc2c(C)n(Cc3ccccc3F)c(C)c2c1=O | inactive: 0.106%
90 | CC(C)CNC(=O)CCSc1nc(-c2ccc3c(c2)OCO3)cc(C(F)(F)F)n1 | inactive: 3.24%
91 | Cc1oc(-c2cccc(Br)c2)nc1CN1CCC(C(=O)NCCc2ccc(Cl)cc2)CC1 | inactive: 6.88%
92 | CCOC(=O)c1ccc(N2C(=O)c3n[nH]c(-c4cccs4)c3C2c2cccc(F)c2)cc1 (stereo unspecified) | inactive: -17.2%
93 | CCOc1ccccc1NC(=O)C(CC(C)C)NS(=O)(=O)c1ccc2c(c1)CCN2C(C)=O (stereo unspecified) | inactive: -2.88%
94 | O=C(Cn1c(=O)n(Cc2nc(-c3ccccc3)no2)c(=O)c2cc3c(cc21)OCO3)Nc1ccc(Cl)cc1 | inactive: 10.6%
95 | Cc1ccc(C)c(N2CCN(c3ccc(NC(=O)c4cccs4)cc3C(=O)O)CC2)c1 | inactive: 22.2%
96 | CCC(=O)N1N=C(c2ccc(OC)cc2)CC1c1cn(-c2ccccc2)nc1-c1cccs1 (stereo unspecified) | inactive: 16.1%
